Data taken from the RNAGym collection of RNA variant scans (doi:10.7554/elife.90254).
The source gives no read counts; variants with many changes may rest on few reads.

B1: LINE1-full (parent)
chain: UACGUAGGUGGUUUUCCCCUGAUAGUGCUAAGGGGGCCUGGAAGUUUGGACUGGGCAGAGCUCAACACAGCGUGGCAAAGUGGCUGUGGCUAGACUGCCUCUCUGGAUUCCUCGUCACUCAGCAGGGCAUCUCUGAGAGAAAUGCC

Variants of: B1
Experiment: self-cleavage, relative activity (ratio to wild type); higher = more cleavage; in vitro, sequencing; the parent is a self-cleaving ribozyme

With U45C G53C U62C A78G U102C G114U A129G A142G as the variant, how does the self-cleavage read?
The self-cleavage was 0.

With U13C A30G A57U A121G A141G as the variant, how does the self-cleavage read?
The self-cleavage was 0.

Which self-cleavage does the source give for U14C C37A U39C A138U here?
Its self-cleavage is 1.22.

For U47A U62C U81A A141G, which self-cleavage is on record?
The self-cleavage was 0.06.

With A69G U81A C120U U143C as the variant, how does the self-cleavage read?
Its self-cleavage is 0.49.

Which self-cleavage does the source give for A43G U81A A94G U100A G114A here?
Its self-cleavage is 0.2.

For G32C G41U U87A U108C A142G, which self-cleavage is on record?
Its self-cleavage is 0.15.

Which self-cleavage does the source give for U1C U39C U134A here?
Its self-cleavage is 0.64.

Which self-cleavage does the source give for A42G U112C A121G here?
The self-cleavage was 1.25.

With U13C A31G A77G as the variant, how does the self-cleavage read?
Its self-cleavage is 0.46.

With U9A U102A U130C as the variant, how does the self-cleavage read?
The self-cleavage was 1.78.

For A42U A59G U87A A138G, which self-cleavage is on record?
The self-cleavage was 0.05.

With A31G A50G U73A C98U as the variant, how does the self-cleavage read?
The self-cleavage was 0.11.

For A22G U26A G49C U115C, which self-cleavage is on record?
Its self-cleavage is 1.18.

For U5C A31U A64U A67G A129G U143C, which self-cleavage is on record?
Its self-cleavage is 0.38.

With U15C U104A U115A C128U as the variant, how does the self-cleavage read?
Its self-cleavage is 1.85.

Which self-cleavage does the source give for A59U A67G U115C here?
Its self-cleavage is 0.

With U20A U29C A64U A124U as the variant, how does the self-cleavage read?
Its self-cleavage is 0.58.

For A22G U62A U96C U102A A140G, which self-cleavage is on record?
Its self-cleavage is 0.09.

Which self-cleavage does the source give for U9C U15A U20C U45G G58A here?
Its self-cleavage is 0.

With A67U G139U U143A as the variant, how does the self-cleavage read?
Its self-cleavage is 0.13.

For G54U U62A A78G U81A A117U, which self-cleavage is on record?
The self-cleavage was 0.03.

For C19U G80U A138U, which self-cleavage is on record?
The self-cleavage was 1.17.

Which self-cleavage does the source give for U5C A43G G127A here?
The self-cleavage was 0.81.

Which self-cleavage does the source give for A42G A64U U96C A136G here?
The self-cleavage was 0.1.

For G10A G21A A59U G88A U109G A121G, which self-cleavage is on record?
Its self-cleavage is 0.

With A31G A94U U104A U115A A136G as the variant, how does the self-cleavage read?
The self-cleavage was 0.44.

For U15C C19U U104C G114A U134C, which self-cleavage is on record?
Its self-cleavage is 1.76.

Which self-cleavage does the source give for C3U C37A C68U A69G U100C U115C here?
Its self-cleavage is 0.13.

Which self-cleavage does the source give for C18A G34U A65G U85C G127U A142G here?
The self-cleavage was 0.07.

With A50U A77G U102A A140G as the variant, how does the self-cleavage read?
The self-cleavage was 1.92.

For U73C C120U U134C U143C, which self-cleavage is on record?
Its self-cleavage is 1.91.

For U13A A79G U130A, which self-cleavage is on record?
The self-cleavage was 0.61.

Which self-cleavage does the source give for U5C U115A A138U here?
Its self-cleavage is 0.93.

Which self-cleavage does the source give for U47C U73A U134A A141G U143A here?
The self-cleavage was 2.25.

Which self-cleavage does the source give for A22G A79G U115A U130C C131U here?
The self-cleavage was 2.04.

Which self-cleavage does the source give for C38A A129G A140G here?
Its self-cleavage is 1.18.

For A22U G58A C63U U85C U100A, which self-cleavage is on record?
Its self-cleavage is 0.03.

Which self-cleavage does the source give for A64G U115C A140U here?
The self-cleavage was 0.27.

For G32A C66U U73C U100C U132C, which self-cleavage is on record?
Its self-cleavage is 0.1.

For U13C U81C U100C, which self-cleavage is on record?
The self-cleavage was 0.61.

For U20C A107G U112C, which self-cleavage is on record?
Its self-cleavage is 1.1.

With U1C U45A A136G as the variant, how does the self-cleavage read?
Its self-cleavage is 1.16.

Which self-cleavage does the source give for U5C A30G A124U A141G here?
Its self-cleavage is 0.88.

Which self-cleavage does the source give for U9A U45G A121G here?
The self-cleavage was 0.25.

Which self-cleavage does the source give for A43G A67G C99U A129G here?
Its self-cleavage is 0.18.

For U15A G32A A50G C61A, which self-cleavage is on record?
The self-cleavage was 0.11.

For U45C A136G A138U, which self-cleavage is on record?
Its self-cleavage is 0.08.

Which self-cleavage does the source give for U20C G125A U143A here?
The self-cleavage was 1.25.

For U13C U39A G44A A107G, which self-cleavage is on record?
Its self-cleavage is 0.

For A22U U62C A77G A138U, which self-cleavage is on record?
Its self-cleavage is 0.

With U15C A67U A107G A140G as the variant, how does the self-cleavage read?
Its self-cleavage is 0.15.

With A79G U104A U109A A141G U143C as the variant, how does the self-cleavage read?
The self-cleavage was 0.77.

For U20C U112C U119A, which self-cleavage is on record?
Its self-cleavage is 1.8.

For A50G A67G A79C G114A A124U A138G, which self-cleavage is on record?
The self-cleavage was 0.6.

Which self-cleavage does the source give for U1A U39C A42C U115C A141G here?
The self-cleavage was 0.

For U46C G72A A94G, which self-cleavage is on record?
Its self-cleavage is 0.39.

With A24G U39C A69G A78G U143A as the variant, how does the self-cleavage read?
Its self-cleavage is 0.

Which self-cleavage does the source give for U23C U81C A117G A142G here?
The self-cleavage was 0.

Which self-cleavage does the source give for A2G A69G A94U A136U here?
The self-cleavage was 0.59.

Which self-cleavage does the source give for U73C A94U U108A here?
Its self-cleavage is 0.4.

Which self-cleavage does the source give for A2C A24U A77U here?
Its self-cleavage is 0.9.

Which self-cleavage does the source give for A2G G21U U46C U96C A138G here?
Its self-cleavage is 0.

Which self-cleavage does the source give for A30G A59G A94U here?
The self-cleavage was 0.

With A42G U81A C133U as the variant, how does the self-cleavage read?
Its self-cleavage is 2.69.

With A31U A69U A121G as the variant, how does the self-cleavage read?
The self-cleavage was 0.12.

Which self-cleavage does the source give for G10U A31G A124G A129G here?
Its self-cleavage is 1.74.

Which self-cleavage does the source give for C37G U39A G41A U62A A79G U96C here?
Its self-cleavage is 0.07.

For U9C U47G U87C G127A U132A, which self-cleavage is on record?
The self-cleavage was 0.16.

For G36C A57U A69G U96A C110U, which self-cleavage is on record?
The self-cleavage was 0.1.

With U45C G58A A65G C110A as the variant, how does the self-cleavage read?
The self-cleavage was 0.06.

For A6G U81A G105A, which self-cleavage is on record?
The self-cleavage was 1.69.

Which self-cleavage does the source give for A57G A65G U73A here?
Its self-cleavage is 0.06.

Which self-cleavage does the source give for A77U U81C U109A here?
Its self-cleavage is 1.43.

Which self-cleavage does the source give for A22G U29C A30G here?
Its self-cleavage is 2.04.

With A69U U81A A107G as the variant, how does the self-cleavage read?
The self-cleavage was 0.05.

For U12G U20C U62C A67U C120U U134C, which self-cleavage is on record?
Its self-cleavage is 0.1.

Which self-cleavage does the source give for U14C A79U U91C here?
Its self-cleavage is 0.93.

With U13A A69U A140U as the variant, how does the self-cleavage read?
Its self-cleavage is 0.02.

For U62C A92G C98U, which self-cleavage is on record?
Its self-cleavage is 0.06.

With U5C A129U U132A as the variant, how does the self-cleavage read?
The self-cleavage was 1.52.

Which self-cleavage does the source give for C19U G25A A69U C98U here?
Its self-cleavage is 0.09.

Which self-cleavage does the source give for U14G G33U A64G here?
The self-cleavage was 0.21.
